Measured values published in publication PMC12136788.
This is one part of the list.

T1: UNK ZnF1-6 (called full-length) (human, UniProt Q9C0B0 30-357)
T1 sequence: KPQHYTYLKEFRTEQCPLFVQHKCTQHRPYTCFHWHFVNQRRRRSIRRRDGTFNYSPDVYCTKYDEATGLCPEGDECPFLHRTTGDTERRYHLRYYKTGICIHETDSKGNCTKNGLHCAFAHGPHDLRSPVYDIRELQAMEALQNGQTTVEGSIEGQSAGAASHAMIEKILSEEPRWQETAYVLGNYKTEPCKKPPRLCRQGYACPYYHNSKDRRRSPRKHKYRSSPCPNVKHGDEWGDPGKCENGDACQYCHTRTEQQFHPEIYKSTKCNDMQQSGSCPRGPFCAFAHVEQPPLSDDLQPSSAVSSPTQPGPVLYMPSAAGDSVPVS

B1: chr4:55904547:55904648:+|3pUTR|ENSG00000090989|msi1|total|mutant (ssRNA)
RNA: GGGAGUUCUACAGUCCGACGAUCAAAAUACCAAGCAACUGUUUUGAGAACCCAGACUUAAAAUUUUAUGUAUUAUUAAAUGUCCGAUAAAUGGGCCGUACCAUACUACAAAUAUUUAAAUGCAAAAUUACCAACCUAUACCGCCAACAGAGGAUUGAGCAUCA
B2: chr5:37333503:37333606:-|CDS|ENSG00000113569|unk|FALSE|unique (ssRNA)
RNA: GGGAGUUCUACAGUCCGACGAUCGAUGACAGCUGGUGUUGAUGGUCAUUCCUGGGCUCUUUCUGCGAUAGAUGAAUUGAAAGUAGAUAAAAUAAUUACACCUUUAAACAAGGAUCAUAUUCCAAUAACUGAUUCACCAGUUGUCAACAGAGGAUUGAGCAUCA
B3: chr14:100883672:100883793:-|CDS|ENSG00000254656|unk|FALSE|unique (ssRNA)
RNA: GGGAGUUCUACAGUCCGACGAUCUCUAUUCCGGGUCCCUCAGCCGGAUUCCCUAGACAGUCUGAUUGUGCUCAUCCUGCAAAUAGAAGAGAAGCUGGCAGAGAGAAGAGCUAUGCUCAGGCUGCCCCCCGAGGCCCGCCCCCGCAACAGAGGAUUGAGCAUCA
B4: chr12:74541195:74541296:+|3pUTR|ENSG00000253719|msi1|total|mutant (ssRNA)
RNA: GGGAGUUCUACAGUCCGACGAUCUGGGGGAAGGGGGGGGUUCUUUAAAAUUUCUGUGGUUUGUGGCUUUUUCUUCCAUACAUCCGUUCCCACCAUCGCAUGCCCAGGGACCACUGCCUGGCAUUAUCGCAUGCUGGGAUCAUCCAACAGAGGAUUGAGCAUCA
B5: chr8:48920054:48920155:-|CDS|ENSG00000019549|unk|total|mutant (ssRNA)
RNA: GGGAGUUCUACAGUCCGACGAUCACCUAUUCAACUUUUUCUGGGCUGGCCAAACAUAAGCAGCUGCACUGCGAUGCCCAGUCCCGAAAAUCUUUCAGCUGUAAAUACUGUGACAAGGAAUAUGUGAGCCUGGGCGCCCUGAAGCAACAGAGGAUUGAGCAUCA
B6: ENSG00000130764:stop:overlap|stop_codon|ENSG00000130764|stop_codon|NA|stop_codon (ssRNA)
RNA: GGGAGUUCUACAGUCCGACGAUCCAGGGUACAAAGAAAGCAUUCUCUUUCCAAAGGAGACGUUGUGGAACCAGUCUGUCAUCUAGAUGGCCCUGACGUGAGGGAAGUGGAAGGUGUUAGGAGCGGAGAUACCUUCACUUGCUGCAACAGAGGAUUGAGCAUCA

What follows are binders tested against T1, UNK ZnF1-6 (called full-length) (assay: nsRBNS (natural sequence RNA bind-n-seq); RBNS binding buffer (assumed for nsRBNS): 25 mM Tris pH 7.5, 150 mM KCl, 3 mM MgCl2, 0.01% Triton X-100, 500 ug/ml BSA, 20 U/ml SUPERase-In, 4 C; UNK is unkempt and MSI1 is Musashi-1; names of the RNAs are library labels; protein concentration not given here; high values mean tight binding).

Q: B1 was tested. Which binding signal did it give?
A: Its binding signal is 1.06 enrichment R.

Q: For B2, which binding signal is on record?
A: Its binding signal is 5.84 enrichment R.

Q: With B3 as the binder, how does the binding signal read?
A: The binding signal was 0.977 enrichment R.

Q: How did the binding signal turn out when B4 was run?
A: The binding signal was 1.06 enrichment R.

Q: Which binding signal does the source give for B5 here?
A: The binding signal was 0.712 enrichment R.

Q: How did the binding signal turn out when B6 was run?
A: Its binding signal is 0.633 enrichment R.
